Laboratory results reported in paper PMC4336329 (PLoS ONE, 2015).
Hit rate of the full screen: of about 310,000 compounds, about 2,200 (0.71%) showed an effect of 50% or more. Effects have a minus sign here. This is one part of the list.

Each compound was assayed against human ether-à-go-go-related gene (hERG) potassium channel (human, UniProt Q12809) (assay: primary screen, population patch clamp on CHO cells stably expressing hERG).
human ether-à-go-go-related gene (hERG) potassium channel, sequence (Q12809 whole entry, looked up): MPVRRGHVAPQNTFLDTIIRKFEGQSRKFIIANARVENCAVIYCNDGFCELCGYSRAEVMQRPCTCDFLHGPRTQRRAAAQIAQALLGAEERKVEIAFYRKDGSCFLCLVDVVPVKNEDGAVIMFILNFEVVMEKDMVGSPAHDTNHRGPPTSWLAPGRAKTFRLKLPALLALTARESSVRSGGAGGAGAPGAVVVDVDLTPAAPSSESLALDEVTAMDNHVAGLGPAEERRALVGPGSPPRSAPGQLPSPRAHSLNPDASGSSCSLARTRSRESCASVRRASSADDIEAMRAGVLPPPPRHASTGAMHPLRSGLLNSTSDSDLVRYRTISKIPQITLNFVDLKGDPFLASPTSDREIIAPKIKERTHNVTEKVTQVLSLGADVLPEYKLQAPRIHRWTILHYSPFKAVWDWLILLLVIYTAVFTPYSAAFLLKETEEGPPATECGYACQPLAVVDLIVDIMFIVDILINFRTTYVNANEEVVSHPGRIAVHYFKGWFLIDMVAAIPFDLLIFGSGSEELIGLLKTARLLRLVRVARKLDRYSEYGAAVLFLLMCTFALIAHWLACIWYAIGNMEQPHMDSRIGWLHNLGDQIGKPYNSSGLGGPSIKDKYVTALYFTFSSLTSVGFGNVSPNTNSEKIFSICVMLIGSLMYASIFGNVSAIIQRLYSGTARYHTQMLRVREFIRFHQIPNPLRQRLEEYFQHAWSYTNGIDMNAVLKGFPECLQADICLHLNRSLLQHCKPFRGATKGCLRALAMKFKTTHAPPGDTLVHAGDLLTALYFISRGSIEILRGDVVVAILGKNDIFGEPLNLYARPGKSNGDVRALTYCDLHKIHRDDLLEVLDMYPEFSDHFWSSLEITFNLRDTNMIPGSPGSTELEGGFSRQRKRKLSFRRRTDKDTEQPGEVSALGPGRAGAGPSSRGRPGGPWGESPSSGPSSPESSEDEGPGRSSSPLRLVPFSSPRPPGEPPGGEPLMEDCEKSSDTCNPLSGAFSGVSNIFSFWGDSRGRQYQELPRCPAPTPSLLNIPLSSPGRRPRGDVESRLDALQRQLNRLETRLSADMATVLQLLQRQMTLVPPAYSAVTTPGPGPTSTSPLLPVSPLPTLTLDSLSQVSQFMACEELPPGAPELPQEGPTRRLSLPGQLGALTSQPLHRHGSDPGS

First: CCOc1ccccc1CNCCNCC(C)O.Cl (stereo not drawn)
Second: CCOc1ccccc1CNn1nnnc1N
The “hERG current change (%, negative = inhibition) at 1uM” value of the first is lower: 4.76% for the first, 21% for the second.

Compared with `C=CCn1c(-c2ccc(Cl)cc2)cnc1SC(C)C(=O)NC(N)=O` (stereo not drawn), `CC(Sc1nncs1)C(=O)Nc1ccc(Cl)cn1` (stereo not drawn) is higher in “hERG current change (%, negative = inhibition) at 1uM” value: -0.152% for the first, 1.34% for the second.

Compared with `O=c1c2ccccc2nc(-c2ccco2)n1/N=C/c1ccco1`, `O=C(CSc1ccccn1)Nc1nc2c(ccc3ccccc32)s1` is lower in “hERG current change (%, negative = inhibition) at 1uM” value: 17.5% for the first, 8.48% for the second.

Compared with `Cc1ccc(-c2nn3c(C)nnc3s2)cc1NC(=O)c1ccc(OC(C)C)cc1`, `CCOC(=O)CSc1nnc(CNC(=O)c2ccc(OC)cc2OC)n1-c1ccc(OC)cc1` is lower in “hERG current change (%, negative = inhibition) at 1uM” value: -1.79% for the first, -31.4% for the second.

First: O=C(Cc1ccc(Cl)cc1)NCC(=O)N1CCCC1
Second: O=C(NCCc1cccc(Cl)c1)C1CCC(=O)N(Cc2ccc(Cl)cc2)C1 (stereo not drawn)
The “hERG current change (%, negative = inhibition) at 1uM” value of the first is higher: 0.842% for the first, -8.57% for the second.

Going from `CC(=O)Nc1ccc(NC(=O)C(C)Sc2nnc(-c3cccs3)o2)cc1` (stereo not drawn) to `Cc1ccc(Cl)cc1NC(=O)Nc1cccs1`, the “hERG current change (%, negative = inhibition) at 1uM” value falls from 15.3% to 9.5%.

Compared with `CCOC(=O)/C(C#N)=C\c1c(OCC)n(CC)c2ccccc12`, `CCOC(=O)/C(C#N)=C\c1c(C)cc(C)c(COC(C)=O)c1C` is higher in “hERG current change (%, negative = inhibition) at 1uM” value: 2.72% for the first, 15.6% for the second.

Compared with `CCc1ccc(NC(=S)NC(=O)c2c(-c3ccccc3Cl)noc2C)cc1`, `COCC(=O)Nc1cc(C(=O)Nc2ccccc2)ccc1Cl` is higher in “hERG current change (%, negative = inhibition) at 1uM” value: 5.32% for the first, 6.99% for the second.

First: c1ccc(-c2ccc(C3=Nn4c(nnc4-c4cccs4)SC3)cc2)cc1
Second: C=CCc1c(C)nc(-c2ccccc2)nc1Nc1ccc(O)cc1
The “hERG current change (%, negative = inhibition) at 1uM” value of the first is higher: 9.69% for the first, 3.65% for the second.

Compared with `O=C(COC(=O)C1CCN(C(=O)c2ccc(Cl)cc2)CC1)c1ccco1`, `O=C(CCNS(=O)(=O)c1cccc(Cl)c1)OCC(=O)N1CCN(C(=O)c2ccco2)CC1` is lower in “hERG current change (%, negative = inhibition) at 1uM” value: -2.41% for the first, -22.9% for the second.

Going from `Cc1cc(OCc2cc(C(=O)N(C)C(C)c3ccccn3)no2)cc(C)c1Cl` (stereo not drawn) to `C=CCC1(CC=C)CCCN1C(=O)c1cc(COc2ccccc2SC)on1`, the “hERG current change (%, negative = inhibition) at 1uM” value falls from 11.9% to 6.72%.

Compared with `O=C1C(c2ccccc2)SC(=Nc2ccccc2)N1S(=O)(=O)c1ccccc1` (stereo not drawn), `CCC(Oc1ccccc1)C(=O)N(Cc1ccccc1)c1ccccn1` (stereo not drawn) is higher in “hERG current change (%, negative = inhibition) at 1uM” value: 5.15% for the first, 9.42% for the second.

Going from `CC(=O)N/C(=C\c1ccccc1)C(=O)OCc1ccccc1` to `Cc1ccccc1C(=O)NNC(=O)CSc1nc(-c2ccccc2)cc(=O)[nH]1`, the “hERG current change (%, negative = inhibition) at 1uM” value rises from 4.66% to 11.6%.

First: O=C(NCC1CCCCC1)c1cc([N+](=O)[O-])ccc1Cl
Second: COc1ccc(NC(=S)NC2CCCCCC2)c(OC)c1
The “hERG current change (%, negative = inhibition) at 1uM” value of the first is higher: 16.2% for the first, 2.89% for the second.

First: Cc1nc(N)sc1-c1csc(Nc2cccc(C(=O)O)c2)n1
Second: Cc1nc2c(ccc3nc(NC(=O)c4ccc5c(c4)OCCO5)sc32)s1
The “hERG current change (%, negative = inhibition) at 1uM” value of the first is higher: 6.2% for the first, -86.6% for the second.

First: Cc1cc(NC(=O)c2cccc(S(=O)(=O)N3CCC(C)CC3)c2)no1
Second: Cc1ccc(NC(=O)c2oc3ccc(S(=O)(=O)N4CCOCC4)cc3c2C)cc1C
The “hERG current change (%, negative = inhibition) at 1uM” value of the first is higher: 9.36% for the first, 0.784% for the second.

First: CCOC(=O)NC(=S)Nc1c(C)n(C)n(-c2ccccc2)c1=O
Second: COCc1cc(C)n(CC(=O)NCc2ccccc2)c(=O)c1C#N
The “hERG current change (%, negative = inhibition) at 1uM” value of the first is lower: 13.5% for the first, 18.3% for the second.

First: O=[N+]([O-])c1ccc(N=Nc2ncc[nH]2)cc1
Second: O=[N+]([O-])c1ccc(/C=C/c2ccncc2)cc1
The “hERG current change (%, negative = inhibition) at 1uM” value of the first is higher: 12.3% for the first, 2.2% for the second.

Compared with `Cc1ccc(NC(=O)c2ccc(NCCN)c([N+](=O)[O-])c2)cc1Cl`, `CN1CCN(S(=O)(=O)c2ccc(NC(=O)c3ccc(F)cc3Cl)cc2)CC1` is higher in “hERG current change (%, negative = inhibition) at 1uM” value: 1.72% for the first, 18.2% for the second.

Compared with `COc1ccc(/C=C(\C#N)C(=O)OCC(=O)Nc2ccc(-c3nc4ccc(C)cc4s3)cc2)cc1`, `COc1ccc(Nc2oc(COc3ccc(Cl)cc3)nc2C#N)cc1` is higher in “hERG current change (%, negative = inhibition) at 1uM” value: 4.6% for the first, 14.6% for the second.

Compared with `COc1ccc(OC)c(C2C=C(c3ccc(C)c(C)c3)Nc3nnnn32)c1` (stereo not drawn), `CCOC(=O)CSc1nnnn1-c1cc(OC)c(Cl)cc1OC` is lower in “hERG current change (%, negative = inhibition) at 1uM” value: 3.78% for the first, 2.85% for the second.

Going from `COC(=O)c1cc(COC(=O)c2nc3nc(C)cc(C)n3n2)oc1C` to `CSc1nc2n(n1)C(c1cc(Br)ccc1F)C(C(=O)N(C)C)=C(C)N2` (stereo not drawn), the “hERG current change (%, negative = inhibition) at 1uM” value falls from 5.25% to -7.16%.

Compared with `Cc1ccccc1OCc1csc(N)n1`, `CN(C)c1oc(/C=C/c2ccccc2)nc1C#N` is higher in “hERG current change (%, negative = inhibition) at 1uM” value: 15.1% for the first, 15.5% for the second.

Compared with `O=C(NC(NC1CCS(=O)(=O)C1)C(Cl)(Cl)Cl)c1cccc(Cl)c1` (stereo not drawn), `O=C(CSc1nccn1-c1cccc(Cl)c1)NO` is lower in “hERG current change (%, negative = inhibition) at 1uM” value: 12.1% for the first, 4.8% for the second.

Compared with `Cc1ccc(C)c(C(=O)NC(C)c2ccc(-n3ccnc3)cc2)c1` (stereo not drawn), `CCOc1ccccc1C(=O)N/N=C/c1coc2ccc(C)cc2c1=O` is higher in “hERG current change (%, negative = inhibition) at 1uM” value: -5.71% for the first, 6.21% for the second.

Going from `Cc1ccccc1N1CCN(C2CCCN(C(=O)c3ocnc3C)C2)CC1` (stereo not drawn) to `CC(Oc1ccccc1)C(=O)N1CCN(c2ccc(N3CCOCC3)nn2)CC1` (stereo not drawn), the “hERG current change (%, negative = inhibition) at 1uM” value rises from -2.56% to 1.96%.

First: COc1cccc2oc3ccc(C#Cc4ccccn4)cc3c(=O)c12
Second: COc1ccccc1CNC(=O)c1oc2ccc(S(=O)(=O)N3CCCC3)cc2c1C
The “hERG current change (%, negative = inhibition) at 1uM” value of the first is higher: 19.5% for the first, 6.28% for the second.

Compared with `COc1ccc(C2CC(c3cccs3)=NN2S(C)(=O)=O)cc1` (stereo not drawn), `COc1ccc(C2C3=C(CC(C)(C)CC3=O)Oc3ncn(Cc4ccco4)c(=N)c32)cc1` (stereo not drawn) is lower in “hERG current change (%, negative = inhibition) at 1uM” value: 10.2% for the first, -10.6% for the second.

First: NNC(=O)CCc1nc2ccc(O)cc2[nH]1
Second: Cc1occc1C(=O)NNC(=O)COc1ccc(Br)cc1Br
The “hERG current change (%, negative = inhibition) at 1uM” value of the first is higher: 24.8% for the first, 12.1% for the second.

First: COc1ccc(C(=O)COC(=O)c2cc(S(=O)(=O)N3CCCCC3)ccc2N2CCOCC2)c(OC)c1
Second: O=S(=O)(c1ccc2c(c1)CCCN2)N1CCCCC1
The “hERG current change (%, negative = inhibition) at 1uM” value of the first is higher: 0.129% for the first, -2.78% for the second.

Going from `CN1CCN(NC(=O)c2cccc3ccccc23)CC1` to `COc1ccccc1N1CCN(C(=O)CSc2nc(-c3ccco3)cc(C(F)(F)F)n2)CC1`, the “hERG current change (%, negative = inhibition) at 1uM” value falls from 6.3% to 5.61%.

First: O=C(O)c1cccc(OS(=O)(=O)c2cc(Br)ccc2Br)c1
Second: Fc1ccc(NC(=S)N/N=C/c2cccc(Br)c2)c(F)c1
The “hERG current change (%, negative = inhibition) at 1uM” value of the first is higher: 7.18% for the first, 5.57% for the second.

Compared with `CCc1cccc(CC)c1NC(=O)CSc1nc2ccc(N3C(=O)C4C(C3=O)[C@H]3C=C[C@@H]4C3)cc2s1` (stereo partly drawn), `CC(=O)C1=NN(c2ccc(Cl)cc2)C(c2ccc3c(c2)OCO3)N(C(C)=O)N1C` (stereo not drawn) is higher in “hERG current change (%, negative = inhibition) at 1uM” value: 10.4% for the first, 12.4% for the second.

Compared with `Cc1ccc(S(=O)(=O)NCC(=O)OCC(=O)c2ccc(Br)s2)cc1`, `N/C(CSc1ccc(Cl)cc1)=N\S(=O)(=O)c1ccc(Cl)cc1` is higher in “hERG current change (%, negative = inhibition) at 1uM” value: 8.43% for the first, 9.29% for the second.

First: O=C(COC(=O)[C@@H]1CCCN1C(=O)c1cccs1)NCCc1ccccc1
Second: COCCC(=O)N1CCC(Oc2ccc(C(=O)NCCc3ccccn3)cc2)CC1
The “hERG current change (%, negative = inhibition) at 1uM” value of the first is lower: 11.6% for the first, 15.4% for the second.

Compared with `COc1ccc(C(=O)N2CCSC2=S)cc1OC`, `COc1ccc(CC(=O)N2CC(C)CC(C)C2)cc1OC` (stereo not drawn) is higher in “hERG current change (%, negative = inhibition) at 1uM” value: 2.63% for the first, 5.78% for the second.

Going from `CCOc1ccc(N=Cc2c(O)n(CCc3ccc(OC)c(OC)c3)c(=O)[nH]c2=O)cc1` to `CCCCOC(=O)C1=C(C)Nc2ncnn2C1c1cccc(OC)c1` (stereo not drawn), the “hERG current change (%, negative = inhibition) at 1uM” value falls from 13% to 8.83%.

Compared with `COc1cccc(N2CCN(c3c4c(nc5ncnn35)CCC4)CC2)c1`, `CN(Cc1ccc(C(C)(C)C)cc1)C(=O)c1ccc2c(=O)n3c(nc2c1)CCC3` is lower in “hERG current change (%, negative = inhibition) at 1uM” value: -0.656% for the first, -5.45% for the second.

Compared with `O=C(NC1CC1)C1=C[C@@H](c2ccc(Br)cc2)C[C@@H](OCCCCO)O1`, `CCc1csc(CCNC(=O)C2CCC(=O)N(Cc3ccccc3F)C2)n1` (stereo not drawn) is lower in “hERG current change (%, negative = inhibition) at 1uM” value: 10.6% for the first, 5.32% for the second.

Going from `CSc1c(-c2ccccn2)c(N)nn1C(=O)C1CCC1` to `c1ccc2c3n(nc2c1)CCCCO3`, the “hERG current change (%, negative = inhibition) at 1uM” value falls from 5.4% to 2.92%.

Compared with `CC(=O)Nc1ccc(S(=O)(=O)N(C#N)c2nc(N(C)C)nc(N(C)C)n2)cc1`, `COc1ccccc1N(Cc1ccccc1)S(=O)(=O)c1cccc(C(=O)NC2CC(C)(C)NC(C)(C)C2)c1` is lower in “hERG current change (%, negative = inhibition) at 1uM” value: 14.2% for the first, -2.06% for the second.

Going from `N#CC(C#N)=C1C(=O)N(CCN2CCOCC2)c2ccccc21` to `O=C(NCC(c1cccs1)N1CCOCC1)c1cccnc1` (stereo not drawn), the “hERG current change (%, negative = inhibition) at 1uM” value falls from 16.1% to 7.27%.

Compared with `COc1cc2c3c(c1OC)C1(C=CC(=NNC(N)=O)C=C1)CC3N(C(C)=O)CC2` (stereo not drawn), `CCC(CC)C(=O)Oc1c(Sc2ccccc2[N+](=O)[O-])c(C)nn1C(C)(C)C` is higher in “hERG current change (%, negative = inhibition) at 1uM” value: 2.18% for the first, 8.84% for the second.

First: CC(CC(=O)O)CC(=O)Nc1ccccc1C(=O)O (stereo not drawn)
Second: CC1=CC(=O)C(C(C)C)=C/C1=N/OS(=O)(=O)c1ccccc1
The “hERG current change (%, negative = inhibition) at 1uM” value of the first is lower: -16.4% for the first, 7.66% for the second.

Compared with `ClC(Cl)(Cl)c1ccccc1`, `COC(=O)C(CCSC)NC(=O)C(NC(=O)C1CCC(C)CC1)C(C)C` (stereo not drawn) is lower in “hERG current change (%, negative = inhibition) at 1uM” value: 12.4% for the first, 9.53% for the second.
